Data on 58 molecules can be found in publication PMC4336329 (PLoS ONE, 2015).

The campaign covered roughly 310,000 compounds. About 2,200 (0.71%) showed an effect of 50% or more. The effect is printed as a negative number. This is one part of the list.

The target of this experiment is human ether-à-go-go-related gene (hERG) potassium channel (human, UniProt Q12809). Kind of experiment: primary screen, population patch clamp on CHO cells stably expressing hERG.
Chain of human ether-à-go-go-related gene (hERG) potassium channel (Q12809 whole entry, looked up): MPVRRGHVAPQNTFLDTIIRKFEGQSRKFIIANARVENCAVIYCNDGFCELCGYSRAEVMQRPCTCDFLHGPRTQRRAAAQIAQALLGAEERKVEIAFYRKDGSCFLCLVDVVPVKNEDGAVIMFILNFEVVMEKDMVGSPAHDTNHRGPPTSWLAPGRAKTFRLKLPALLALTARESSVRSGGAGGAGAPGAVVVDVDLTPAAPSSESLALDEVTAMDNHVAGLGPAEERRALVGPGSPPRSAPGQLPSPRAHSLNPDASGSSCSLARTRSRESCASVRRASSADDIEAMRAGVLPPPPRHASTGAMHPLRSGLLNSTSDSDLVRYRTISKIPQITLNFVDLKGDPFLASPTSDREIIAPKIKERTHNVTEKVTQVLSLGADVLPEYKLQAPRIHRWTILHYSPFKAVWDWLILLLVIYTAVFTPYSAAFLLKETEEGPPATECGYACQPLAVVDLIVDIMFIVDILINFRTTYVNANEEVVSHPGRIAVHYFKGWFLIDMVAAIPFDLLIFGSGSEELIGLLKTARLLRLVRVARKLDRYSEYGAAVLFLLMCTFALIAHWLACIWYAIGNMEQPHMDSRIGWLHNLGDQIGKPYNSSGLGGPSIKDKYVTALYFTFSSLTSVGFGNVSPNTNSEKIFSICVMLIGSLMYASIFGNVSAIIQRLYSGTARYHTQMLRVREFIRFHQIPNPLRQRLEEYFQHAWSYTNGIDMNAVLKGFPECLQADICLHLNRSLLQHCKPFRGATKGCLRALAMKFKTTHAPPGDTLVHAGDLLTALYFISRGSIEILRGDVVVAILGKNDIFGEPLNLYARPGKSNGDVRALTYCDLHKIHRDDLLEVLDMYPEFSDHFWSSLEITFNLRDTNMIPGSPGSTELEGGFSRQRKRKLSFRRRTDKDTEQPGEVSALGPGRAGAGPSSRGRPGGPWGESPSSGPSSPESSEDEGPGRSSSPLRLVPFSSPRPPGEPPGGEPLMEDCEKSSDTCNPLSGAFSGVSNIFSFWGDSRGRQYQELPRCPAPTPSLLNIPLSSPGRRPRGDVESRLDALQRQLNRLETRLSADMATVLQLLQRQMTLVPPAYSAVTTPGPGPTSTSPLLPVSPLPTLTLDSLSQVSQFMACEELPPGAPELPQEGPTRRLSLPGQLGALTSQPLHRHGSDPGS
For the molecule `O=C(C1CCCN(S(=O)(=O)c2ccccc2)C1)N1CCCc2ccccc21` (stereo not shown), the “hERG current change (%, negative = inhibition) at 1uM” value is 4.22%.
Under `CSc1nc(O)c(Nc2cccc(Cl)c2)c(=O)[nH]1` stands 9.29%; under `COc1ccc(S(=O)(=O)Nc2ccc3c(c2)OCO3)cc1OC`, 18.8%; under `CC(=O)N1CCN(C(=O)c2cc(S(=O)(=O)N(C)c3ccc(F)cc3)ccc2Cl)CC1`, -1.89%.
Under `COc1cc(/C=N\NS(=O)(=O)c2ccccc2)cc(OC)c1OC` stands 14.7%; under `CCCCNC(=O)COC(=O)c1ccc(Cl)c(S(N)(=O)=O)c1`, 10.6%; under `CCOC(=O)CN1C(=O)/C(=C/c2c(F)cccc2Cl)Oc2ccccc21`, 0.272%.
As for `CCCCOc1ccc(C(=O)NC)cc1`, the figure is 2.01%; as for `N[C@@H](Cn1oc(=O)[nH]c1=O)C(=O)O`, 15.8%.
As to `Cl.O=C(CNCCO)N1CCc2ccccc21`, the “hERG current change (%, negative = inhibition) at 1uM” value is given as -0.586%.
As to `NS(=O)(=O)c1ccc(-c2ccc(C=C3C(=O)NC(=S)NC3=O)o2)cc1`, the “hERG current change (%, negative = inhibition) at 1uM” value came to 9.92%.
In the case of `Cc1cccc(C(=O)N2CCCC(Nc3ccc(C)c(C)c3)C2)n1` (stereo not shown), the “hERG current change (%, negative = inhibition) at 1uM” value is recorded as -2.48%.
As for `Cc1ccc2oc(=O)c3cnn(CC(=O)NCCN(C)C)c3c2c1`, the figure is 11.5%.
Under `O=C(CN(C(=O)c1csnn1)c1cccc2ccccc12)NCc1ccc(F)cc1` stands -2.45%; under `Cn1c(SCC(=O)Nc2nncs2)nnc1C1CC1`, 10.8%.
Under `CC12CC3CC(C)(C1)CC(C(=O)N1CCN(C(=O)c4ccco4)CC1)(C3)C2` stands 4%.
For `Cc1ccc(C2=NN(CCC(=O)NCCC(C)C)C(=O)CC2)cc1`, the “hERG current change (%, negative = inhibition) at 1uM” value was found to be 13.2%.
As for `CCOC(CNC(=O)CN1C(=O)COc2ccc(S(=O)(=O)N3CCCC3)cc21)OCC`, the figure is 11.4%; as for `CC(=O)c1cccc(NC(=O)CCNS(=O)(=O)c2cccc3nsnc23)c1`, 12.1%; as for `Cc1cc(N2CCCCC2)nc(NCc2ccccc2)n1`, -3.64%.
As for `Cc1cccc(OCC(=O)NNC(=O)Nc2cccc(Cl)c2)c1C`, the figure is 9.61%.
As for `CC(C)Cn1c(N)c(C(=O)COC(=O)c2nccnc2N)c(=O)n(C)c1=O`, the figure is -6.71%.
Consider `C=CCNC(=O)C(C)N1c2cccc3cccc(c23)S1(=O)=O` (stereo not shown), for which the “hERG current change (%, negative = inhibition) at 1uM” value worked out at 12.5%.
Under `O=C(c1ccc2c(c1)OCO2)N(CC1CCCO1)C1(C(=O)NC2CCCCC2)CCCCC1` (stereo not shown) stands 4.58%; under `CC(=O)N1CCN(CC(=O)Nc2ccc(C#N)c(Cl)c2)CC1`, -0.422%; under `CCOC(=O)c1c(C)[nH]c(C(=O)N2CCN(C(=O)OCC)CC2)c1C`, 7.64%.
Consider `OC1=C(O)c2nc3cc(F)ccc3nc21`, for which the “hERG current change (%, negative = inhibition) at 1uM” value came out at 10.4%.
Under `COc1ccccc1-c1cc(C(F)(F)F)nc(S(=O)(=O)CCCC(=O)O)n1` stands 10.9%.
As for `COCCNC(=S)NCc1ccc2[nH]c3c(c2c1)CCCC3`, the “hERG current change (%, negative = inhibition) at 1uM” value turned out to be 6%.
As to `CC(=O)Nc1nnc(COc2ccc(Cl)cc2)s1`, the “hERG current change (%, negative = inhibition) at 1uM” value was 7.78%.
Consider `c1ccc(-c2cc(N3CCCCCC3)n[nH]2)cc1`, for which the “hERG current change (%, negative = inhibition) at 1uM” value turned out to be 2.14%.
Under `FC(F)(F)/C(=N\P(=S)(N1CCOCC1)N1CCOCC1)N1CCOCC1` stands 12.7%.
Under `Cc1ccc(-n2c(O)c(C=NCCC3=CCCCC3)c(=O)[nH]c2=O)cc1` stands 11.2%; under `O=C(CNC(=O)c1cccs1)Nc1ccc(N2CCOCC2)cc1`, 2.95%.
Under `CCn1c(NCc2cc(Cl)ccc2O)nc2ccccc21` stands 8.08%; under `O=C1OCCC1Sc1nc2ccccc2c(=O)n1Cc1ccccc1` (stereo not shown), -64.6%; under `O=C(OCc1nnc(-c2ccccc2)o1)C1CC(=O)N(Cc2ccco2)C1` (stereo not shown), 5.68%.
In the case of `Cc1cccc(C(=O)O/N=C(\N)CS(=O)(=O)c2ccccc2)c1`, the “hERG current change (%, negative = inhibition) at 1uM” value is listed as 5.74%.
As to `COc1ccccc1NC(=O)C(=O)NCc1ccccc1Cl`, the “hERG current change (%, negative = inhibition) at 1uM” value is 14.4%.
`O=C1c2ccccc2CCc2ccc(Br)cc21`: the “hERG current change (%, negative = inhibition) at 1uM” value amounted to 12.9%.
As for `CN(C)c1ccc(C=NCCC2(c3ccccc3)CCOC(C)(C)C2)cc1` (stereo not shown), the figure is 10.7%; as for `O=C(CN1C(=O)C2C3C=CC(C3)C2C1=O)Nc1cccc(S(=O)(=O)N2CCCC2)c1` (stereo not shown), 0.743%; as for `COc1cc(OC)c(NS(=O)(=O)c2cccc(C(=O)OCC(=O)NCC3CCCO3)c2)cc1Cl` (stereo not shown), 12.9%.
With `COC(=O)c1ccc(NC(=O)c2cccnc2)cc1`, the “hERG current change (%, negative = inhibition) at 1uM” value came out at 14.9%.
Under `CCN(CCNC(=O)C1CCN(S(C)(=O)=O)CC1)c1ccccc1` stands -3.8%; under `CC(=O)Nc1ccc(OCC(O)CNC2CCCC2)cc1.Cl` (stereo not shown), 14.8%.
Take `O=C(OCc1ccc([N+](=O)[O-])cc1)c1cc(=O)c2ccccc2o1`: the “hERG current change (%, negative = inhibition) at 1uM” value amounted to 12.8%.
As for `CCSc1n[nH]c2nc3c(c(=O)n12)C1(CCCCC1)Cc1ccccc1-3`, the “hERG current change (%, negative = inhibition) at 1uM” value was -6.7%.
Under `N=c1c2c3c(sc2ncn1Cc1ccccc1)CCCC3` stands -6.48%; under `COc1ccc(C(C)=O)cc1CSc1nnc(-c2ccncc2)o1`, 8.85%; under `COc1ccccc1/C=C/C(=O)OCc1nc2ccccc2c(=O)[nH]1`, 16.1%.
Under `CCOC(=O)c1cccc(NC(=O)CSc2nnc(-c3ccncc3)n2CCCOC)c1` stands -22.9%; under `O=c1c(-c2ccco2)[n+]([O-])c2ccccc2n1OCc1ccccc1F`, 10.6%.
Under `Cc1[nH]c(=O)[nH]c(=O)c1CSc1nnc([C@@H](NC(=O)OC(C)(C)C)C(C)C)o1` stands 10.9%.
Turning to `COc1ccc(N(CC(O)Cn2c3ccccc3c3ccccc32)S(=O)(=O)c2ccccc2)cc1` (stereo not shown), the “hERG current change (%, negative = inhibition) at 1uM” value is recorded as 11.6%.
Under `O=C(CSc1nnc(-c2ccco2)o1)Nc1cccc([N+](=O)[O-])c1` stands 11.5%.
As for `Cc1ccc(S(=O)(=O)CCSc2n[nH]c(=O)n2-c2ccc3c(c2)OCCO3)cc1`, the figure is 11.5%; as for `CCOC(=O)N1CCC(N2CCN(C3CCCC3)C(CCO)C2)CC1` (stereo not shown), 1.4%.
